# Laboratory results from PubChem BioAssay AID652104 (National Center for Advancing Translational Sciences (NCATS), 2013).
# Screen size: about 410,000 compounds; about 7,200 (1.8%) were called active. Inconclusive means that the source gave no clear call. Such entries were picked first, then a sample of the others. Calls come from the whole dose curve; as a rule, active = well fitted activation curve with a large enough effect; inconclusive = small, poorly fitted or top-dose-only effect, or another doubt; inactive = no such curve, though single readings can be large or run the other way. No potency is given beside an inconclusive call; the fits are too rough.
# Test: qHTS of TDP-43 Inhibitors; note: nearly all actives have a fitted effect of over 50% in size
# Conditions: TDP-43 expressing yeast growth rescue, BacTiter-Glo, 24 h; series mostly up to 46.1 µM
# Outline: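 Yeast cells expressing TDP-43 under galactose induction are exposed to compounds for 24 hr at 30 deg C. BacTiter-Glo luminescence measures growth, so protective compounds score as activators.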
# Potency is the fitted concentration of half-maximal effect; tags give direction and shape of the fitted curve.
row,SMILES,Potency
1,COCCn1c(C)cc(O)c(C(c2ccccc2)N2CCN(c3ccccc3F)CC2)c1=O (configuration not stated),inactive
2,COc1ccc(N2CCN(C(=O)CCNS(=O)(=O)c3ccc(Br)s3)CC2)cc1,"inconclusive [activator, single point]"
3,O=C(CCCSc1nc2ccccc2c(=O)[nH]1)c1ccc(F)cc1,"inconclusive [activator, partial curve, poor fit]"
4,O=C(O)C1CCCCN1c1ccccc1[N+](=O)[O-] (configuration not stated),"inconclusive [activator, partial curve]"
5,NC(=O)C1CCN(C2CC(=O)N(c3cccc(F)c3)C2=O)CC1 (configuration not stated),"inconclusive [activator, partial curve]"
6,O=C(N/N=C/c1cccc(OCc2ccccc2)c1)c1ccc(Br)o1,active: 11.2 µM
7,COC(=O)C1=C(C(=O)OC)SC(=C2C(=S)C(C)(C)N(C(=O)C(C)C)c3ccccc32)S1,active: 3.16 µM
8,Nc1nn(S(=O)(=O)c2cccc3nsnc23)cc1-c1ccc(Br)cc1,"inconclusive [activator, partial curve]"
9,Cc1nc2[nH]c(=O)c3c(n2n1)NC1=C(C(=O)CC(C)(C)C1)C3c1ccccc1 (configuration not stated),"inconclusive [activator, full curve, poor fit]"
10,O=C(COC(=O)C(c1ccccc1)c1ccccc1)NCc1ccco1,"inconclusive [activator, partial curve]"
11,CCOC(=O)c1[nH]c(C)c(C(=O)Nc2ccc(C)c(C)c2)c1C,"inconclusive [activator, partial curve]"
12,CN(C)c1cc(-c2ccc(Br)cc2)oc(=O)c1Cl,active: 7.94 µM
13,C/C=C/c1ccc(OCC(=O)Nc2cc(Cl)ccc2-n2cncn2)c(OC)c1,"inconclusive [activator, single point]"
14,O=C(Nc1ccc2c(c1)OCO2)C1CC(c2ccccc2Cl)=NO1 (configuration not stated),"inconclusive [activator, single point]"
15,Cc1c(C)n(CCC#N)c2ccc(Cl)cc12,active: 12.6 µM
16,COc1ccnc2c1c(=O)n(Cc1c(F)cccc1Cl)c(=O)n2C,"inconclusive [activator, partial curve]"
17,CC(C)=CCC[C@](C)(O[C@@H]1O[C@H](CO[C@@H]2OC[C@H](O[C@@H]3OC[C@@H](O)[C@H](O)[C@H]3O)[C@H](O)[C@H]2O)[C@@H](O)[C@H](O)[C@H]1O)C1CC[C@]2(C)C1[C@H](O)CC1[C@@]3(C)CC[C@H](O)C(C)(C)C3[C@@H](O)C[C@]12C (some centres not stated),inactive
18,CC(C)(C)c1ccc(OCCC(=O)OCC(=O)NC2CCS(=O)(=O)C2)cc1 (configuration not stated),inactive
19,O=C(Nc1ccccc1C(=O)Nc1ccc(Cl)cc1)c1cccnc1,active: 14.1 µM
20,O=C(Cn1ncc2ccsc2c1=O)N1CCN(c2ccc(Cl)cc2)CC1,inactive
21,N#Cc1ccc(CSc2nnc(-c3cccs3)n2-c2ccccc2)cc1,"inconclusive [activator, single point]"
22,COC(=O)c1ccc(CSc2nc3ccc(Cl)cc3[nH]2)o1,"inconclusive [activator, partial curve]"
23,COc1ccc(S(=O)(=O)N[C@@H](Cc2ccc(Cl)cc2)C(=O)N2CC[C@@]3(O)CCCC[C@H]3C2)cc1,inactive
24,CCc1ccc2c(c1)NC(=O)C2(C)Cc1ccc(Cl)s1 (configuration not stated),"inconclusive [activator, single point]"

row,SMILES,Potency
1,COc1ccc(Cc2nc(-c3ccc(Br)o3)no2)cc1OC,"inconclusive [activator, partial curve]"
2,COc1ccc(NC(=O)Oc2ccccc2)cc1Cl,active: 17.8 µM
3,COc1ccc(/C=N/Nc2ccc(C(=O)O)cc2)cc1Br,"inconclusive [activator, single point]"
4,Fc1ccccc1COc1ccc(C(=S)N2CCCC2)cc1,"inconclusive [activator, partial curve]"
5,COc1ccc(OC)c(CCNc2ncnc3onc(-c4ccc(Cl)cc4)c23)c1,"inconclusive [activator, partial curve]"
6,OC(c1ccco1)c1nc(-c2cccs2)cs1 (configuration not stated),"inconclusive [activator, partial curve]"
7,CC(C)Cc1nnc(NC(=O)c2ccc3c(c2)OCCO3)s1,active: 20 µM
8,CCN(CC)c1ccc(/C=C(\C#N)c2ccccn2)cc1,active: 15.8 µM
9,COc1ccc(NC(=O)Cn2ccn(-c3ccc(F)c(F)c3)c(=O)c2=O)cc1Cl,inactive
10,O=C1COc2ccc(C(=O)COC(=O)Cc3ccccc3F)cc2N1,inactive
11,N#C/C(=C\c1ccco1)Sc1nc2ccccc2s1,active: 15.8 µM
12,O=[N+]([O-])c1cc(Oc2cccnc2)cc([N+](=O)[O-])c1,"inconclusive [activator, single point]"
13,O=C1CC(c2ccccc2)Sc2ccccc2N1Cc1ccccc1F (configuration not stated),"inconclusive [activator, partial curve]"
14,CCCn1nc(NC(=O)COC)c2cc3cccc(C)c3nc21,"inconclusive [activator, partial curve]"
15,Cc1cc(S(=O)(=O)Nc2ccc3ccccc3c2)c(C)s1,"inconclusive [activator, single point]"
16,COc1ccc(-c2csc(-c3cccnc3)n2)cc1C,active: 15.8 µM
17,CCCn1nnc(NC(=O)c2ccc3ccccc3c2)n1,"inconclusive [activator, single point]"
18,COC(=O)C1CCN(C(=O)c2oc3c(Cl)cc(C)cc3c2C)CC1,"inconclusive [activator, partial curve]"
19,CC(C)c1ccc(/C=N/Nc2cc(N3CCOCC3)nc(N3CCOCC3)n2)cc1,inactive
20,COc1cc(/C=C(\CC(=O)O)c2nc3ccccc3s2)cc(OC)c1O,inactive
21,CCc1ccc(N2C=C(C(=O)OC)C(c3ccc(OC)cc3)C(C#N)=C2N)cc1 (configuration not stated),"inconclusive [activator, partial curve]"
22,c1ccc(-c2cc3ccccc3[nH]2)cc1,active: 11.2 µM
23,CC[C@@](C)(NS(=O)(=O)OCC(Cl)(Cl)Cl)c1ccccc1,"inconclusive [activator, partial curve]"
24,Clc1cccc2sc(N3CCOCC3)nc12,inactive

row,SMILES,Potency
1,Cc1cccc(C)c1OCCn1c(CCNC(=O)C2CCCCC2)nc2ccccc21,"inconclusive [activator, single point]"
2,COc1cc(OC)cc(C(=O)NCCNc2nc3cc(C)cc(C)c3cc2C#N)c1,inactive
3,CCCc1ccc(-c2ccc(-c3noc(-c4ccncc4)n3)cc2)nc1,"inconclusive [activator, partial curve]"
4,Cc1nc2ccc(NC(=O)N3CCC(c4ccccc4)C3)cc2nc1C (configuration not stated),inactive
5,Cc1ccc(NC(=O)c2ccc(Cn3cc(Br)cn3)o2)cc1,active: 15.8 µM
6,O=C(Nc1nnc(C2=COCCO2)o1)c1ccc(Cl)cc1,"inconclusive [activator, single point]"
7,CCOC(=O)C(C)N1C(=O)S/C(=C/c2ccc3c(c2)n(C)c(=O)n3C)C1=O (configuration not stated),"inconclusive [activator, single point]"
8,CC1CCN(c2ccc3c(c2)S(=O)(=O)c2ccccc2C3=O)CC1,"inconclusive [activator, single point]"
9,CC(/C=N/n1c(-c2ccccn2)n[nH]c1=S)=C\c1ccccc1,inactive
10,Cc1ccc2c(c1)C(c1ccccc1)N(C(=O)COc1ccc(Cl)cc1Cl)CC(=O)N2 (configuration not stated),"inconclusive [activator, partial curve]"
11,COc1ccc(-c2nc3ccccc3n2Cc2ccccc2)cc1,"inconclusive [activator, partial curve]"
12,CC1(C(=O)Nc2ccc3c(c2)OCCO3)CCN1C(=O)C1(c2ccc(Cl)cc2)CC1 (configuration not stated),active: 35.5 µM
13,Cc1cc(C)c(OCC(=O)OCC(=O)N2c3ccccc3CC2C)c(C)c1 (configuration not stated),"inconclusive [activator, full curve, poor fit]"
14,CCOc1ccc2nc(N(Cc3cccnc3)C(=O)c3cccs3)sc2c1,active: 14.1 µM
15,OC(c1ccc(F)c(F)c1)c1nc(-c2csc3ccccc23)cs1 (configuration not stated),active: 15.8 µM
16,O=C(c1ccc2ccccc2c1)C1CCCN(C(=O)c2noc3c2CCCC3)C1 (configuration not stated),inactive
17,COc1ccccc1N1CCN(C(=O)c2cc(=O)c3ccc(C)cc3o2)CC1,"inconclusive [activator, partial curve]"
18,O=C(Nc1ccc(F)c(Cl)c1)C1CCCN(c2ncnc3onc(-c4ccc(F)cc4)c23)C1 (configuration not stated),"inconclusive [activator, partial curve]"
19,Cc1nc(C)c(-c2csc(NCc3ccccc3)n2)s1,active: 20 µM
20,CN(Cc1ccccc1F)c1nc(-c2cccs2)nc2ccccc12,"inconclusive [activator, single point]"
21,COc1cc(Cl)ccc1OCc1cc(C(=O)N2CC[C@@H]3CCCC[C@H]3C2)no1,"inconclusive [activator, single point]"
22,CCOc1ccc(NC(=O)c2cccc(N3CCCS3(=O)=O)c2)cc1,inactive
23,COc1ccc(CNC(=S)Nc2cc(C)ccc2C)cc1,"inconclusive [activator, single point]"
24,CCN(c1cccc(C)c1)C(CNS(=O)(=O)c1ccccc1)c1ccccc1 (configuration not stated),inactive
